# In PMC4336329 (PLoS ONE, 2015):
# In all, about 310,000 compounds went through this assay and about 14,000 (4.5%) showed an effect of 50% or more. Effects have a minus sign here. Some of the results follow.
# Target: human ether-à-go-go-related gene (hERG) potassium channel (human, UniProt Q12809)
# Assay: primary screen, population patch clamp on CHO cells stably expressing hERG
# 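Note: peak tail current of the secondary pulse compared with the same well before compound.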
# human ether-à-go-go-related gene (hERG) potassium channel, sequence (Q12809 whole entry, looked up): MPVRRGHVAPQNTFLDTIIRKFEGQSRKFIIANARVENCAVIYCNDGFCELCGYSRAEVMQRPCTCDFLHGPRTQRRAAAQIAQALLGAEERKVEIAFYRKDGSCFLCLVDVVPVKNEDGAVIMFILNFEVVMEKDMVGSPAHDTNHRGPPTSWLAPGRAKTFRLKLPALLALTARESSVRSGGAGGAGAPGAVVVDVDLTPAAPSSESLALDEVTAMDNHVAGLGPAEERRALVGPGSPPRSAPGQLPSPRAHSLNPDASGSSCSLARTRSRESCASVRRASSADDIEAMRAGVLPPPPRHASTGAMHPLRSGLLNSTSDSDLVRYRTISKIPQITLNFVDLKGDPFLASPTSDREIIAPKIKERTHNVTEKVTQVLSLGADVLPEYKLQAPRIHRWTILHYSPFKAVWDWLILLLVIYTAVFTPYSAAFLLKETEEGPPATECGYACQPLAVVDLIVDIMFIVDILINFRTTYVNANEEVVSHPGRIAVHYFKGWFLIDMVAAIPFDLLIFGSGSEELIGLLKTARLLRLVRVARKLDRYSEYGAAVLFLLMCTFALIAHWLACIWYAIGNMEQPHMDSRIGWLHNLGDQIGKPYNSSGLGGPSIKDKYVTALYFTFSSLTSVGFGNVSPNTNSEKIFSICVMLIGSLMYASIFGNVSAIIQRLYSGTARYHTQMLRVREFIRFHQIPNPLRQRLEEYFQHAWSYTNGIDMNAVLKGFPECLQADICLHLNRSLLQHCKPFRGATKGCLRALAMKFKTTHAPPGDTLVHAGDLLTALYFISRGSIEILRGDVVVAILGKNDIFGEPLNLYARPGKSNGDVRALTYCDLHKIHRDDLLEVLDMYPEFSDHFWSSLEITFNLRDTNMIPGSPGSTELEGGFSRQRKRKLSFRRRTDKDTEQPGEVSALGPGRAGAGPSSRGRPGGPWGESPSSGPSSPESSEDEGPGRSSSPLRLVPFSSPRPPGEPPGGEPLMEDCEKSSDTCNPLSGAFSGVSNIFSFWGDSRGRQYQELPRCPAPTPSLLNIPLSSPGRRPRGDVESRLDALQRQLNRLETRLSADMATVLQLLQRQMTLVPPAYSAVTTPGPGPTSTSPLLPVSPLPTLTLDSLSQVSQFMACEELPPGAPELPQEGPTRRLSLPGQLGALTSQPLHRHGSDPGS
row,SMILES,"hERG current change (%, negative = inhibition) at 10uM [%]"
1,Cc1nnc(N/N=C/c2ccc(-c3ccccc3F)o2)n1N.Cl,-40.3
2,CCOC(=O)c1ccc(NC(=O)C(=O)NCC2(c3ccc(OC)cc3)CCOCC2)cc1,-10.3
3,O=C(CC(NS(=O)(=O)c1ccc(Cl)cc1)c1ccco1)NCc1cccnc1 (stereo not drawn),-18.1
4,CN(C(=O)CSc1nc(-c2ccc(F)cc2)cs1)C1CCS(=O)(=O)C1 (stereo not drawn),-37.1
5,CC(=O)Nc1ccc(-c2csc(NC(=O)c3ccc(C)o3)n2)cc1,-6.43
6,O=S(=O)(NCCN1CCCC1)c1ccc(C(F)(F)F)cc1,1.97
7,Cc1ccc(S(=O)(=O)/N=C2\SC(CC(=O)Nc3ccc(F)cc3)C(=O)N2c2ccccc2)cc1 (stereo not drawn),12.2
8,COc1ccc(-n2c(-c3cc(-c4ccccc4)sc3N)n[nH]c2=S)cc1,12.8
9,COCCNC(=O)C1CC(=O)N(C2CCCCC2)C1 (stereo not drawn),11.8
10,CCCOC(=O)Nc1ccc(S(=O)(=O)Nc2ncccn2)cc1,9.2
11,CCC(=O)OCC(=O)Nc1cc(C)c(C)cc1[N+](=O)[O-],9.98
12,Cc1cccc(C(C)(C)C)c1OCCN1CCCC1,-6.22
13,COCCn1nnnc1C(c1ccc(OC)cc1OC)N1CCN(c2ccccc2F)CC1.Cl (stereo not drawn),-9.23
14,CC[C@@H](C)[C@@H](C(=O)N1CCNCC1)n1cc(CCC(=O)O)nn1.Cl,-5.79
15,COc1ccccc1NC(=O)CCS(=O)(=O)c1cc2c(cc1Cl)NC(=O)CO2,1.94
16,COc1ccc(OC)c(N(CC(=O)N2CCC(C)CC2)S(=O)(=O)c2ccccc2)c1,-22.2
17,CC1CC1C(=O)Nc1nc2ccc(S(C)(=O)=O)cc2s1 (stereo not drawn),1.04
18,Cc1ccc(C(=O)Nc2ccc3c(c2)OCO3)o1,1.96
19,COc1ccc(CCC(=O)N2CCN(c3cccc(C)c3C)CC2)cc1,-40.4
20,CCc1nnc(NC(=O)c2cc(S(=O)(=O)N3CCN(c4ccccc4)CC3)ccc2Cl)s1,1
21,Cc1ccc(C(=O)NC2CC(=O)N(c3ccc4c(c3)OCCO4)C2)cc1[N+](=O)[O-] (stereo not drawn),14.6
22,O=S(=O)(NC1CCCCC1N1CCN(c2ccccc2F)CC1)c1ccc(Cl)cc1 (stereo not drawn),10.2
23,CC(C)CC(=O)N1CCN(S(=O)(=O)c2ccccc2)CC1,0.444

row,SMILES,"hERG current change (%, negative = inhibition) at 10uM [%]"
1,CC(O)CNCCCOc1cccc(C(F)(F)F)c1.O=C(O)C(=O)O (stereo not drawn),14.6
2,CCN(CC)CCCn1c(=S)[nH]c2ccc(Cl)cc2c1=O,-63.7
3,COc1ccc(N2CCN(C3CCCN(C(=O)CN4CCOC4=O)C3)CC2)cc1 (stereo not drawn),-2.3
4,Cn1cc(S(=O)(=O)N2CCCC2)cc1C(=O)N1CCN(c2cccc(Cl)c2)CC1,-41.2
5,FC(F)(F)c1nc(NCc2cccnc2)c2ccccc2n1,11.8
6,CCOC(=O)C1(C)NC(c2ccco2)C2C(=O)N(C)C(=O)C21 (stereo not drawn),13.6
7,O=C(NC1CCCCC1)c1nn2c(C(F)(F)F)cc(-c3ccco3)nc2c1Br,11.8
8,O=C(O)c1ccc(-n2c(-c3ccc(Br)cc3)n[nH]c2=S)cc1,17.4
9,CCc1cc2cc(C(=O)Nc3ccc(C)cc3)sc2s1,15
10,COC(=O)c1ccc(CN2C(=O)NC3(CCCc4ccccc43)C2=O)o1 (stereo not drawn),0.917
11,CCN(Cc1ccccc1)C(=O)COC(=O)c1cc(=O)[nH]c2ccccc12,-4.27
12,COC(=O)NCC(c1ccc2c(c1)OCO2)N1CCN(c2ccc(OC)cc2)CC1 (stereo not drawn),-3.26
13,COC(=O)c1ccc(N/C(=N/S(=O)(=O)c2ccccc2)c2ccccc2)cc1,-34.6
14,CCOc1ccc2c(c1)c(N=O)c(O)n2C,-5.91
15,CCn1c(SCC(=O)Nc2sc3c(c2C#N)CCC(C(C)(C)C)C3)nnc1-c1ccco1 (stereo not drawn),11.2
16,Cc1ccc(N/N=C/C=C/c2ccco2)cc1,12.8
17,CS(=O)(=O)Nc1ccc(C2=NN(C(=O)c3ccccc3)C(c3cccs3)C2)cc1 (stereo not drawn),-59.6
18,Cc1csc(Sc2ccc(S(=O)(=O)N3CCCC3)cn2)n1,-16.8
19,COc1ccc(Cl)cc1C(=O)Nc1ccncc1,-26.2
20,COC(=O)[C@@H]1CCCN1C(=O)CCc1nnc(CCc2c[nH]c3ccccc23)o1,23.7
21,COc1ccccc1C(CNC(=O)c1ccco1)N1CCCC1 (stereo not drawn),1.23
22,CC1=C(C)CC2C(=O)N(c3cccc4ccccc34)C(=O)C2C1 (stereo not drawn),-3.2
23,COc1ccc(OC)c(/C=N/OC(=O)Nc2ccc(Cl)cc2)c1,-1.74

row,SMILES,"hERG current change (%, negative = inhibition) at 10uM [%]"
1,Cc1ccc(S(=O)(=O)Nc2cc(=O)[nH]c(SCc3ccc(Cl)cc3)n2)cc1,6.9
2,O=C1CC2CS(=O)(=O)CC2N1C1CCCCC1 (stereo not drawn),19.7
3,O=c1cc(NCCO)c2ccccc2o1,5.57
4,CCCCCOC(=O)C1C(c2ccccc2)C(C(=O)O)C1c1ccccc1 (stereo not drawn),-2.06
5,Cn1nc(-c2ccccc2)c(CO)c1Sc1ccccc1,12.4
6,CCN(CC(=O)Nc1c(F)cccc1F)C(=O)c1ccc(COc2ccccc2)o1,-1.49
7,COc1ccc(C(=O)N(CC2CCCO2)C(C(=O)NC2CCCC2)c2ccc(C)cc2)cc1OC (stereo not drawn),-13.4
8,COc1ccc(Cc2nnc(NC(=O)c3ccc(OC)c(OC)c3)s2)cc1OC,0.849
9,COc1ccc(-c2[nH]ncc2CN2CCCO2)cc1F,20.1
10,COc1ccc(OC)c(N(CC(=O)NCc2ccncc2)S(C)(=O)=O)c1,19
11,Nc1cccc(C(=O)Nc2ccccc2Cl)c1,8
12,CCOc1ccc(S(=O)(=O)NCC(=O)NC2CCCCC2)cc1,3
13,N#Cc1ccc(NC(=O)c2cc(=O)c3ccccc3o2)cc1,-13.6
14,COc1ccc(CNC(=O)CCn2cccc2)cc1,1.9
15,COc1ccc(-n2nc3c(c2NC(=O)c2c(F)cccc2Cl)CS(=O)C3)cc1 (stereo not drawn),-3.74
16,COCCCNC(=O)Cn1cc(/C=C(\C#N)C(=O)NC2CC2)c2ccccc21,-7.95
17,Cc1onc(-c2ccccc2)c1C(=O)NNC(=O)c1ccccc1O,10.3
18,Cc1ccccc1N1CCN(c2ncnc3scc(-c4cccs4)c23)CC1,-1.45
19,COC(=O)c1cc(-c2cccc([N+](=O)[O-])c2)c2c(=O)[nH]c(=O)n(C)c2n1,6.48
20,Cc1cccc(C(=O)Nc2nccs2)c1[N+](=O)[O-],11.4
21,COc1cc2c(cc1/C=C/C(=O)O)OC(C)C2 (stereo not drawn),-2.09
22,NC(=O)c1oc2ccc(Cl)cc2c1N,2.24
23,COc1cc(CN(C)CCc2ccccn2)cc(OC)c1OC.O=C(O)C(=O)O,-11.6

row,SMILES,"hERG current change (%, negative = inhibition) at 10uM [%]"
1,Nc1ccccc1N1C(=O)c2cccc3cccc(c23)C1=O,-0.337
2,O=C(CCS(=O)(=O)c1ccc(F)cc1)Nc1nc(-c2ccccn2)cs1,-12.6
3,CC(=O)N1CCN(Cc2nc3cc(NC(=O)c4ccccc4)ccc3n2C)CC1,15.8
4,Cc1ccc(OCCOc2cccc(/C=N/NC(N)=O)c2)cc1,14.5
5,COc1ccc(C2C(C(=O)N3CCCC3)c3cc(OC)c(OC)cc3C(=O)N2C)cc1 (stereo not drawn),3.08
6,O=C(COC(=O)C12CC3CC(CC(C3)C1)C2)Nc1ccc2[nH]c(=O)[nH]c2c1,2.25
7,CCOc1ccc(C(=O)SC2=NCCS2)cc1,-3.96
8,O=C(CCNc1n[nH]c(=O)[nH]c1=O)N1CCCCC1,7.04
9,COc1ccc(C(C(=O)NC2CCCC2)N2CCc3ccccc32)cc1 (stereo not drawn),9.68
10,Cc1c(OC(C(=O)O)c2ccccc2)ccc2c1oc(=O)c1ccccc12 (stereo not drawn),17.3
11,Cc1cc(C(F)(F)F)c(C#N)c(N2CCOCC2)n1,-10.3
12,O=C(N/N=C/c1ccc2cccnc2c1)c1nc2ccccc2c(=O)[nH]1,5.32
13,O=C1CCN(S(=O)(=O)c2ccccc2)N1,7.12
14,O=C(O)CCCC(=O)Nc1ccc(C(=O)N2CCCCC2)cc1,14.7
15,CCOc1ccc(S(=O)(=O)N2CCOCC2)c2ccccc12,-1.09
16,Cc1cccc(N2CCN(CCCNC(=O)C3CCCN(c4ncnc5c4nc4n5CCCCC4)C3)CC2C)c1 (stereo not drawn),-67.8
17,CCOC(=O)CSc1nc(-c2ccccc2)nc2ccccc12,1.69
18,COc1ccc(N2Cc3ccccc3C2=NC(=O)c2ccc(C)cc2)cc1OC,1.81
19,CC1CN(S(=O)(=O)c2cccc(C(=O)NCC3COc4ccccc4O3)c2)CC(C)O1 (stereo not drawn),-41.3
20,CC(=O)NC(CC(=O)NCC(c1ccco1)N(C)C)c1ccccc1 (stereo not drawn),-3.13
21,CCOC(=O)C(=CNc1cc(C)nn1-c1ccc(Cl)cc1)C(=O)OCC,2.31
